B1: AGGAUUG (DNA:RNA)
RNA: GGGAGACCGGAAUUCAGAUUGUCCAGGAUUGUUAAAUCCCGUCGUAGCCACCA
DNA 1: CAATCTGAATTCCGGTCTCCC
DNA 2: TGGTGGCTACGACGGGATT
B2: GUGUUCC (DNA:RNA)
RNA: B1 RNA with A25G, G26U, A28U, U30C, G31C
DNA 1: CAATCTGAATTCCGGTCTCCC
DNA 2: TGGTGGCTACGACGGGATT
B3: GGUUAAA (DNA:RNA)
RNA: B1 RNA with A25G, G27U, A28U, U29A, U30A, G31A
DNA 1: CAATCTGAATTCCGGTCTCCC
DNA 2: TGGTGGCTACGACGGGATT
B4: GUUAGUG (DNA:RNA)
RNA: B1 RNA with A25G, G26U, G27U, U29G
DNA 1: CAATCTGAATTCCGGTCTCCC
DNA 2: TGGTGGCTACGACGGGATT
B5: GUGGGUG (DNA:RNA)
RNA: B1 RNA with A25G, G26U, A28G, U29G
DNA 1: CAATCTGAATTCCGGTCTCCC
DNA 2: TGGTGGCTACGACGGGATT
B6: GGGACCA (DNA:RNA)
RNA: B1 RNA with A25G, U29C, U30C, G31A
DNA 1: CAATCTGAATTCCGGTCTCCC
DNA 2: TGGTGGCTACGACGGGATT
B7: GCCAUAU (DNA:RNA)
RNA: B1 RNA with A25G, G26C, G27C, U30A, G31U
DNA 1: CAATCTGAATTCCGGTCTCCC
DNA 2: TGGTGGCTACGACGGGATT
B8: CAAUCUG (DNA:RNA)
RNA: B1 RNA with A25C, G26A, G27A, A28U, U29C
DNA 1: CAATCTGAATTCCGGTCTCCC
DNA 2: TGGTGGCTACGACGGGATT
B9: AACUGAC (DNA:RNA)
RNA: B1 RNA with G26A, G27C, A28U, U29G, U30A, G31C
DNA 1: CAATCTGAATTCCGGTCTCCC
DNA 2: TGGTGGCTACGACGGGATT
B10: UCUCGCA (DNA:RNA)
RNA: GGGAGACCGGAAUUCAGAUUGUCCUCUCGCAUUAAAUCCCGUCGUAGCCACCA
DNA 1: CAATCTGAATTCCGGTCTCCC
DNA 2: TGGTGGCTACGACGGGATT
B11: UACAUGG (DNA:RNA)
RNA: B1 RNA with A25U, G26A, G27C, U30G
DNA 1: CAATCTGAATTCCGGTCTCCC
DNA 2: TGGTGGCTACGACGGGATT
B12: CAUACCA (DNA:RNA)
RNA: B10 RNA with U25C, C26A, C28A, G29C
DNA 1: CAATCTGAATTCCGGTCTCCC
DNA 2: TGGTGGCTACGACGGGATT
B13: ACGACUG (DNA:RNA)
RNA: B1 RNA with G26C, U29C
DNA 1: CAATCTGAATTCCGGTCTCCC
DNA 2: TGGTGGCTACGACGGGATT
B14: CUAUGGA (DNA:RNA)
RNA: B10 RNA with U25C, C26U, U27A, C28U, C30G
DNA 1: CAATCTGAATTCCGGTCTCCC
DNA 2: TGGTGGCTACGACGGGATT
B15: AGCGGCG (DNA:RNA)
RNA: B1 RNA with G27C, A28G, U29G, U30C
DNA 1: CAATCTGAATTCCGGTCTCCC
DNA 2: TGGTGGCTACGACGGGATT
B16: UGAGGAA (DNA:RNA)
RNA: B10 RNA with C26G, U27A, C28G, C30A
DNA 1: CAATCTGAATTCCGGTCTCCC
DNA 2: TGGTGGCTACGACGGGATT
B17: GUUGCGG (DNA:RNA)
RNA: B1 RNA with A25G, G26U, G27U, A28G, U29C, U30G
DNA 1: CAATCTGAATTCCGGTCTCCC
DNA 2: TGGTGGCTACGACGGGATT
B18: UUCACCG (DNA:RNA)
RNA: B1 RNA with A25U, G26U, G27C, U29C, U30C
DNA 1: CAATCTGAATTCCGGTCTCCC
DNA 2: TGGTGGCTACGACGGGATT
B19: UUGGCUG (DNA:RNA)
RNA: B1 RNA with A25U, G26U, A28G, U29C
DNA 1: CAATCTGAATTCCGGTCTCCC
DNA 2: TGGTGGCTACGACGGGATT
B20: CGCUAAC (DNA:RNA)
RNA: B1 RNA with A25C, G27C, A28U, U29A, U30A, G31C
DNA 1: CAATCTGAATTCCGGTCTCCC
DNA 2: TGGTGGCTACGACGGGATT
B21: GAGGCCC (DNA:RNA)
RNA: B1 RNA with A25G, G26A, A28G, U29C, U30C, G31C
DNA 1: CAATCTGAATTCCGGTCTCCC
DNA 2: TGGTGGCTACGACGGGATT
B22: GUGUCUU (DNA:RNA)
RNA: B1 RNA with A25G, G26U, A28U, U29C, G31U
DNA 1: CAATCTGAATTCCGGTCTCCC
DNA 2: TGGTGGCTACGACGGGATT
B23: GUCCCGG (DNA:RNA)
RNA: B1 RNA with A25G, G26U, G27C, A28C, U29C, U30G
DNA 1: CAATCTGAATTCCGGTCTCCC
DNA 2: TGGTGGCTACGACGGGATT
B24: CAAUUCA (DNA:RNA)
RNA: B10 RNA with U25C, C26A, U27A, C28U, G29U
DNA 1: CAATCTGAATTCCGGTCTCCC
DNA 2: TGGTGGCTACGACGGGATT
B25: GCAAUGA (DNA:RNA)
RNA: B1 RNA with A25G, G26C, G27A, U30G, G31A
DNA 1: CAATCTGAATTCCGGTCTCCC
DNA 2: TGGTGGCTACGACGGGATT
B26: ACUUACA (DNA:RNA)
RNA: B10 RNA with U25A, C28U, G29A
DNA 1: CAATCTGAATTCCGGTCTCCC
DNA 2: TGGTGGCTACGACGGGATT
B27: UCGGACC (DNA:RNA)
RNA: B10 RNA with U27G, C28G, G29A, A31C
DNA 1: CAATCTGAATTCCGGTCTCCC
DNA 2: TGGTGGCTACGACGGGATT
B28: GCUCGAC (DNA:RNA)
RNA: B10 RNA with U25G, C30A, A31C
DNA 1: CAATCTGAATTCCGGTCTCCC
DNA 2: TGGTGGCTACGACGGGATT
B29: CUCUGAC (DNA:RNA)
RNA: B10 RNA with U25C, C26U, U27C, C28U, C30A, A31C
DNA 1: CAATCTGAATTCCGGTCTCCC
DNA 2: TGGTGGCTACGACGGGATT
B30: GUUCCAC (DNA:RNA)
RNA: B10 RNA with U25G, C26U, G29C, C30A, A31C
DNA 1: CAATCTGAATTCCGGTCTCCC
DNA 2: TGGTGGCTACGACGGGATT
B31: CGAGAGG (DNA:RNA)
RNA: B1 RNA with A25C, G27A, A28G, U29A, U30G
DNA 1: CAATCTGAATTCCGGTCTCCC
DNA 2: TGGTGGCTACGACGGGATT

Positions count from the first letter of the chain named. The list shows a part of the results.

The target of the experiment is T1, RBFOX1 RRM (Homo sapiens, UniProt Q9NWB1 109-208).
T1 sequence: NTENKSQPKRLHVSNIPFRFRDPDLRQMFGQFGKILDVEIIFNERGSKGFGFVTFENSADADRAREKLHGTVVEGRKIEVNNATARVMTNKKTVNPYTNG
Kind of experiment: EMSA; HiTS-Eq, 1 nM pool, 10 min; buffer printed only for the single-RNA assays: 10 mM Tris pH 7.5, 150 mM NaCl, 3.4 mM EDTA, 0.001% NP-40, 30 C. The conditions noted are these: tags: His6 N-terminal (pET28a); label: 5' 32P. Summed up: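 These values rest on relative association constants, computed from read-count changes of each RNA species versus the control reaction and normalised to the cognate motif. Reads came from free RNA recovered by 8% native PAGE after purified RbFox RRM (wild type or mutant) at increasing concentrations was equilibrated for 10 min in 50 µL with 1 nM of a 5′-radiolabelled pool with 7 randomized nucleotides and DNA-annealed flanks.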
For orientation: A gel shift assay detects complexes by their altered migration in electrophoresis.
Regarding B1, the binding signal was 0.0293 KA relative to UGCAUGU. For the molecule B2, the binding signal was 0.0195 KA relative to UGCAUGU. The same measure for B3: 0.00176 KA relative to UGCAUGU; for B4: 0.0142 KA relative to UGCAUGU; for B5: 0.0301 KA relative to UGCAUGU. As for B6, the figure is 0.00647 KA relative to UGCAUGU. Turning to B7, the binding signal is 0.00334 KA relative to UGCAUGU. As for B8, the figure is 0.00656 KA relative to UGCAUGU.

In the case of B9, the binding signal is 0.00667 KA relative to UGCAUGU. B10: the binding signal is 0.0132 KA relative to UGCAUGU. As for B11, the figure is 0.0106 KA relative to UGCAUGU; as for B12, 0.00134 KA relative to UGCAUGU.

As for B13, the binding signal was 0.0123 KA relative to UGCAUGU. With B14, the binding signal was 0.00372 KA relative to UGCAUGU.

In the case of B15, the binding signal is 0.0189 KA relative to UGCAUGU. Regarding B16, the binding signal is 0.00907 KA relative to UGCAUGU. The same measure for B17: 0.0134 KA relative to UGCAUGU. The same measure for B18: 0.0049 KA relative to UGCAUGU. The same measure for B19: 0.0406 KA relative to UGCAUGU; for B20: 0.00699 KA relative to UGCAUGU. In the case of B21, the binding signal is 0.0156 KA relative to UGCAUGU. As to B22, the binding signal was 0.0173 KA relative to UGCAUGU. The same measure for B23: 0.0188 KA relative to UGCAUGU; for B24: 0.00106 KA relative to UGCAUGU; for B25: 0.0139 KA relative to UGCAUGU. As for B26, the figure is 0.00166 KA relative to UGCAUGU; as for B27, 0.00331 KA relative to UGCAUGU; as for B28, 0.0209 KA relative to UGCAUGU. For B29, the binding signal is 0.0116 KA relative to UGCAUGU. As to B30, the binding signal is 0.00677 KA relative to UGCAUGU. With B31, the binding signal is 0.00736 KA relative to UGCAUGU.

Values taken from PMC9911399, “Two distinct binding modes provide the RNA-binding protein RbFox with extraordinary sequence specificity”.
